# Out of some 320,000 compounds screened, about 9,100 (2.8%) were called active. This list was built around the results that the source calls inconclusive (neither active nor inactive); the mix of calls is not that of the screen. Calls follow the shape of the dose curve; as a rule, active = well fitted activation curve with a large enough effect; inconclusive = small, poorly fitted or top-dose-only effect; inactive = no such curve, though single readings can be large or run the other way. Potencies of inconclusive entries are left out as doubtful fits.
# Test: qHTS Assay for Rab9 Promoter Activators; also: nearly all actives have a fitted effect of over 60% in size
# Settings: Huh7 Rab9 promoter-luciferase reporter, luminescence, 24 h; series mostly up to 9.22 µM
# In short: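 Luminescence from Amplite-detected luciferase (10 minutes, ambient) reports Rab9 promoter activation. Before that, stable Rab9-luciferase Huh7 cells (1500/well, reduced-serum OP-MEM I plus 10% FBS) were exposed to compound for 24 hours at 37C.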
# Potency is read from the fitted curve at half-maximal effect; tags tell the direction and shape of the fitted curve.
row,SMILES,Potency
1,Cc1ccc(C(=O)Cn2nnc3ccccc32)cc1,active: 1.58 µM
2,Cn1ccnc1SCC(=O)c1ccc(O)cc1,"inconclusive [activator, single point]"
3,O=C(COc1ccc2ccccc2c1)NC1=NCCS1,"inconclusive [activator, partial curve]"
4,C(=N\Nc1nc2ccccc2[nH]1)/c1cccs1,active: 3.98 µM
5,C=CCn1c(SCC(=O)Nc2ccccc2C)nnc1-c1ccncc1,inactive
6,O=C1CCn2nc(-c3ccc(Cl)cc3)cc2N1,"inconclusive [activator, partial curve]"
7,CCn1cnc2cc(NS(=O)(=O)c3ccc(OC)c(OC)c3)ccc21,inactive
8,O=C(CN1C(=O)CCS(=O)(=O)c2ccccc21)Nc1ccc(Cl)cc1,inactive
9,COc1ccc(O)c(/C=N/Nc2nc3ccccc3[nH]2)c1,"inconclusive [activator, single point]"
10,Nc1nc2ccccc2n1/N=C/c1ccc(-c2ccccc2)o1,active: 3.98 µM
11,Cc1cccc(C(=O)n2c(=S)nc3ccccn32)c1,active: 0.447 µM
12,Cc1cccc(-n2ncc3c(NCCCn4ccnc4)ncnc32)c1,"inconclusive [activator, partial curve]"
13,CC1Cc2ccccc2N1S(=O)(=O)c1cccc(C(=O)NCCCn2ccnc2)c1 (stereo not given),inactive
14,COc1ccc(CNC(=S)N/N=C(/C)c2ccccc2)cc1,"inconclusive [activator, single point]"
15,CCCC(C(=O)N(C)CC(=O)Nc1ccc(N2CCOCC2)cc1)c1ccccc1 (stereo not given),inactive
16,CCCCc1nc2cc(C(=O)N3CCC(OC)CC3)ccc2o1,"inconclusive [activator, single point]"
17,COCCn1c(C)cc(/C=C2/NC(=O)N(c3cccc(Cl)c3)C2=O)c1C,"inconclusive [activator, full curve]"
18,N/C(=N\OC(=O)/C=C/c1ccccc1Cl)c1cccnc1,"inconclusive [activator, single point]"
19,Cc1ccc(C(=O)Nc2ccc3c(c2)CCC3)cc1S(=O)(=O)N1CCOCC1,active: 2.24 µM
20,Fc1cccc(Cl)c1CSc1nnc2ccccn12,"inconclusive [activator, partial curve]"
21,CCOCC(=O)Nc1nnc(C2CCCCC2)s1,"inconclusive [activator, partial curve]"
22,CCc1noc(C)c1C(=O)Nc1nc(-c2ccccc2)c(C(C)=O)s1,inactive
23,CCn1c(C)nc2cc(C(=O)NNC(=S)Nc3ccccc3Cl)ccc21,"inconclusive [activator, single point]"
24,CN=C1NN=C(c2cc(C)n(-c3c(C)n(C)n(-c4ccccc4)c3=O)c2C)CS1,inactive
25,COc1ccc(CN2C(=NC(=O)C3CCCO3)SC3CS(=O)(=O)CC32)cc1OC (stereo not given),inactive

row,SMILES,Potency
1,CCc1nnc(SCC(=O)Nc2ccc(F)cc2)o1,inactive
2,Cc1ccc(Nc2nc(NCCO)c3ccccc3n2)cc1C,inactive
3,CCOc1ccc2nc(NC(=O)CSc3nc(SC)ns3)sc2c1,"inconclusive [activator, single point]"
4,Clc1ccc(-c2csc(Nc3ccccc3)[n+]2Cc2ccco2)c(Cl)c1,active: 2.82 µM
5,CC(C)(C)c1nnc(NC(=O)COc2ccc3c(c2)OCO3)s1,"inconclusive [activator, partial curve]"
6,O=C(c1ccc(OCCCc2cnc[nH]2)cc1)C1CC1,"inconclusive [activator, partial curve]"
7,CC(=O)Nc1ccc(-c2csc(-c3cccnc3)n2)cc1,"inconclusive [activator, single point]"
8,O=C(Nc1ccncc1)c1ccc2c(c1)S(=O)(=O)c1ccccc1C2=O,inactive
9,CCn1c(C)cc(/C=C2/SC(=S)NC2=O)c1C,"inconclusive [activator, partial curve]"
10,Cc1ccc(N2C(=O)CC(Sc3ccccc3C(=O)O)C2=O)cc1C (stereo not given),inactive
11,O=C1c2ccccc2S(=O)(=O)N1CCOc1ccc(F)cc1,"inconclusive [activator, single point]"
12,COc1cc(NC(=O)C(C)C)ccc1NC(=O)c1cc2ccccc2o1,active: 3.16 µM
13,CC(=O)Oc1ccc2occ(C(=O)c3cccs3)c2c1,"inconclusive [activator, single point]"
14,CC1CCCC(C)N1C(=O)c1cc(-c2ccc(Cl)c(Cl)c2)on1 (stereo not given),"inconclusive [activator, partial curve]"
15,CCOc1ccc(NC(=O)c2oc3ccccc3c2NC(=O)CC)cc1,"inconclusive [activator, partial curve]"
16,O=C(CSc1ncn[nH]1)Nc1nnc(-c2ccccc2)s1,"inconclusive [activator, single point]"
17,COc1cc(N2CCCC2)c(OC)cc1/C=C(/C#N)c1cccc(F)c1,inactive
18,Cc1ccc(NC(=O)C2CC3CCC2C3)c(Br)c1 (stereo not given),"inconclusive [activator, partial curve]"
19,CCOC(=O)CC1C(=O)NCCN1C(=O)c1ccc(Cl)cc1Cl (stereo not given),"inconclusive [activator, single point]"
20,COc1ccccc1OCCn1nnc2ccccc21,"inconclusive [activator, partial curve]"
21,O=C1N=C(N2CCCCC2)S/C1=C\c1ccccc1F,"inconclusive [activator, single point]"
22,O=C(Nc1ccccc1Cl)Nc1cccnc1Cl,inactive
23,Cc1ccc(C2C(C#N)=C(N)Oc3c2oc(CO)cc3=O)o1 (stereo not given),"inconclusive [activator, single point]"
24,CCOc1ccc(C(=O)Nc2ccccc2OC(F)F)cc1,"inconclusive [activator, single point]"
25,O=C(O)C1CCCCC1C(=O)Nc1ccc(OCc2ccccc2)cc1 (stereo not given),"inconclusive [activator, single point]"

# From PubChem BioAssay AID485297 (National Center for Advancing Translational Sciences (NCATS), 2010)
